In the supplement of paper PMC8728848:
Some of the results follow.

Tests used:
Test in all cases: glycan array binding signal (z-score within array); higher = stronger binding
Details in all cases: glycan notation: IUPAC condensed, linker removed
[1] = target: Man(a1-2)Man(a1-3)[Man(a1-2)Man(a1-6)]Man
Method in brief: (§1)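 From the Consortium for Functional Glycomics database, 3228 arrays were curated, keeping only those whose protein sequence was available. Binding is given as a within-array Z-score averaged across arrays sharing a protein sequence and across linkers. Negative Z-scores can be read as non-binding.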

[2] = target: Man(a1-2)Man(a1-3)[Man(a1-2)Man(a1-6)]Man(a1-6)[Man(a1-2)Man(a1-2)Man(a1-3)]Man
Method in brief: as §1

[3] = target: Man(a1-2)Man(a1-3)[Man(a1-2)Man(a1-6)]Man(a1-6)[Man(a1-2)Man(a1-2)Man(a1-3)]Man(b1-4)GlcNAc(b1-4)GlcNAc
Method in brief: as §1

[4] = target: Man(a1-2)Man(a1-3)[Man(a1-6)]Man(a1-6)[Man(a1-2)Man(a1-3)]Man(b1-4)GlcNAc(b1-4)GlcNAc
Method in brief: as §1

[5] = target: Man(a1-2)Man(a1-6)[Man(a1-3)]Man(a1-6)[Man(a1-2)Man(a1-2)Man(a1-3)]Man
Method in brief: as §1

[6] = target: Man(a1-2)Man(a1-6)[Man(a1-3)]Man(a1-6)[Man(a1-2)Man(a1-2)Man(a1-3)]Man(b1-4)GlcNAc(b1-4)GlcNAc
Method in brief: as §1

Man(a1-3)[Man(a1-6)]Man = target: Man(a1-3)[Man(a1-6)]Man
Method in brief: as §1

[7] = target: Man(a1-3)[Man(a1-6)]Man(a1-6)[Man(a1-2)Man(a1-3)]Man(b1-4)GlcNAc(b1-4)GlcNAc
Method in brief: as §1

[8] = target: Man(a1-3)[Man(a1-6)]Man(a1-6)[Man(a1-3)]Man
Method in brief: as §1

[9] = target: Man(a1-3)[Man(a1-6)]Man(a1-6)[Man(a1-3)]Man(b1-4)GlcNAc(b1-4)GlcNAc
Method in brief: as §1

[10] = target: Man(a1-3)[Man(a1-6)]Man(b1-4)GlcNAc(b1-4)GlcNAc
Method in brief: as §1

[11] = target: Man(a1-3)[Man(a1-6)]Man(b1-4)GlcNAc(b1-4)[Fuc(a1-6)]GlcNAc
Method in brief: as §1

Man(a1-6)Man = target: Man(a1-6)Man
Method in brief: as §1

Man(b1-4)GlcNAc = target: Man(b1-4)GlcNAc
Method in brief: as §1

MurNAc(b1-4)GlcNAc = target: MurNAc(b1-4)GlcNAc
Method in brief: as §1

Neu5Ac(a2-3)Gal = target: Neu5Ac(a2-3)Gal
Method in brief: as §1

[12] = target: Neu5Ac(a2-3)Gal(b1-3)GalNAc
Method in brief: as §1

[13] = target: Neu5Ac(a2-3)Gal(b1-3)GalNAc(b1-3)Gal(a1-4)Gal(b1-4)Glc
Method in brief: as §1

[14] = target: Neu5Ac(a2-3)Gal(b1-3)GalNAc(b1-4)[Neu5Ac(a2-3)]Gal(b1-4)Glc
Method in brief: as §1

[15] = target: Neu5Ac(a2-3)Gal(b1-3)GalNAc(b1-4)[Neu5Ac(a2-8)Neu5Ac(a2-3)]Gal(b1-4)Glc
Method in brief: as §1

[16] = target: Neu5Ac(a2-3)Gal(b1-3)GalNAc6S
Method in brief: as §1

[17] = target: Neu5Ac(a2-3)Gal(b1-3)GlcNAc
Method in brief: as §1

[18] = target: Neu5Ac(a2-3)Gal(b1-3)GlcNAc(b1-2)Man
Method in brief: as §1

[19] = target: Neu5Ac(a2-3)Gal(b1-3)GlcNAc(b1-2)Man(a1-3)[GlcNAc(b1-4)][Neu5Ac(a2-3)Gal(b1-3)GlcNAc(b1-2)Man(a1-6)]Man(b1-4)GlcNAc(b1-4)GlcNAc
Method in brief: as §1

[20] = target: Neu5Ac(a2-3)Gal(b1-3)GlcNAc(b1-2)Man(a1-3)[Neu5Ac(a2-3)Gal(b1-3)GlcNAc(b1-2)Man(a1-6)]Man(b1-4)GlcNAc(b1-4)GlcNAc
Method in brief: as §1

[21] = target: Neu5Ac(a2-3)Gal(b1-3)GlcNAc(b1-3)Gal(b1-3)GlcNAc
Method in brief: as §1

[22] = target: Neu5Ac(a2-3)Gal(b1-3)GlcNAc(b1-3)Gal(b1-4)GlcNAc
Method in brief: as §1

[23] = target: Neu5Ac(a2-3)Gal(b1-3)GlcNAc(b1-3)GalNAc
Method in brief: as §1

[24] = target: Neu5Ac(a2-3)Gal(b1-3)GlcNAc(b1-4)Gal(b1-4)Glc
Method in brief: as §1

[25] = target: Neu5Ac(a2-3)Gal(b1-3)GlcNAc(b1-6)GalNAc
Method in brief: as §1

[26] = target: Neu5Ac(a2-3)Gal(b1-3)GlcNAc6S
Method in brief: as §1

[27] = target: Neu5Ac(a2-3)Gal(b1-3)[Fuc(a1-4)]GlcNAc
Method in brief: as §1

[28] = target: Neu5Ac(a2-3)Gal(b1-3)[Fuc(a1-4)]GlcNAc(b1-3)Gal(b1-3)[Fuc(a1-4)]GlcNAc
Method in brief: as §1

[29] = target: Neu5Ac(a2-3)Gal(b1-3)[Fuc(a1-4)]GlcNAc(b1-3)Gal(b1-4)[Fuc(a1-3)]GlcNAc
Method in brief: as §1

[30] = target: Neu5Ac(a2-3)Gal(b1-3)[GlcNAc(b1-6)]GalNAc
Method in brief: as §1

[31] = target: Neu5Ac(a2-3)Gal(b1-3)[Neu5Ac(a2-6)]GalNAc
Method in brief: as §1

[32] = target: Neu5Ac(a2-3)Gal(b1-3)[Neu5Ac(a2-6)]GlcNAc(b1-3)[Fuc(a1-3)[Gal(b1-4)]GlcNAc(b1-6)]Gal(b1-4)Glc
Method in brief: as §1

[33] = target: Neu5Ac(a2-3)Gal(b1-3)]Neu5Ac(a2-3)Gal(b1-4)]GlcNAc
Method in brief: as §1

Neu5Ac(a2-3)Gal(b1-4)Glc = target: Neu5Ac(a2-3)Gal(b1-4)Glc
Method in brief: as §1

[34] = target: Neu5Ac(a2-3)Gal(b1-4)GlcNAc
Method in brief: as §1

[35] = target: Neu5Ac(a2-3)Gal(b1-4)GlcNAc(b1-2)Man
Method in brief: as §1

[36] = target: Neu5Ac(a2-3)Gal(b1-4)GlcNAc(b1-2)Man(a1-3)[GlcNAc(b1-4)][Neu5Ac(a2-3)Gal(b1-4)GlcNAc(b1-2)Man(a1-6)]Man(b1-4)GlcNAc(b1-4)GlcNAc
Method in brief: as §1

[37] = target: Neu5Ac(a2-3)Gal(b1-4)GlcNAc(b1-2)Man(a1-3)[Neu5Ac(a2-3)Gal(b1-4)GlcNAc(b1-2)Man(a1-6)]Man(b1-4)GlcNAc(b1-4)GlcNAc
Method in brief: as §1

[38] = target: Neu5Ac(a2-3)Gal(b1-4)GlcNAc(b1-2)Man(a1-3)[Neu5Ac(a2-3)Gal(b1-4)GlcNAc(b1-2)Man(a1-6)]Man(b1-4)GlcNAc(b1-4)[Fuc(a1-6)]GlcNAc
Method in brief: as §1

[39] = target: Neu5Ac(a2-3)Gal(b1-4)GlcNAc(b1-2)Man(a1-3)[Neu5Ac(a2-6)Gal(b1-4)GlcNAc(b1-2)Man(a1-6)]Man(b1-4)GlcNAc(b1-4)GlcNAc
Method in brief: as §1

B1: HBHA-Rv (Mycobacterium tuberculosum), P0A5P6 (protein)
chain: MAENSNIDDIKAPLLAALGAADLALATVNELITNLRERAEETRTDTRSRVEESRARLTKLQEDLPEQLTELREKFTAEELRKAAEGYLEAATSRYNELVERGEAALERLRSQQSFEEVSARAEGYVDQAVELTQEALGTVASQTRAVGERAAKLVGIELPKKAAPAKKAAPAKKAAPAKKAAAKKAPAKKAAAKKVTQK
glycan array binding signal (z-score) [1]: 0.243 | glycan array binding signal (z-score) [2]: -0.258 | glycan array binding signal (z-score) [3]: -0.264 | glycan array binding signal (z-score) [4]: 0.639 | glycan array binding signal (z-score) [5]: -0.357 | glycan array binding signal (z-score) [6]: 1.09 | glycan array binding signal (z-score) (Man(a1-3)[Man(a1-6)]Man): 0.599 | glycan array binding signal (z-score) [7]: 0.108 | glycan array binding signal (z-score) [8]: -0.429 | glycan array binding signal (z-score) [9]: -0.275 | glycan array binding signal (z-score) [10]: 0.222 | glycan array binding signal (z-score) [11]: -0.167 | glycan array binding signal (z-score) (Man(a1-6)Man): -0.262 | glycan array binding signal (z-score) (Man(b1-4)GlcNAc): -0.127 | glycan array binding signal (z-score) (MurNAc(b1-4)GlcNAc): -0.418 | glycan array binding signal (z-score) (Neu5Ac(a2-3)Gal): 0.027 | glycan array binding signal (z-score) [12]: 1.62 | glycan array binding signal (z-score) [13]: -0.294 | glycan array binding signal (z-score) [14]: -0.466 | glycan array binding signal (z-score) [15]: -0.059 | glycan array binding signal (z-score) [16]: 0.764 | glycan array binding signal (z-score) [17]: 0.026 | glycan array binding signal (z-score) [18]: -0.463 | glycan array binding signal (z-score) [19]: -0.317 | glycan array binding signal (z-score) [20]: -0.163 | glycan array binding signal (z-score) [21]: -0.434 | glycan array binding signal (z-score) [22]: -0.181 | glycan array binding signal (z-score) [23]: -0.403 | glycan array binding signal (z-score) [24]: -0.273 | glycan array binding signal (z-score) [25]: -0.423 | glycan array binding signal (z-score) [26]: 0.36 | glycan array binding signal (z-score) [27]: -0.12 | glycan array binding signal (z-score) [28]: -0.246 | glycan array binding signal (z-score) [29]: -0.148 | glycan array binding signal (z-score) [30]: -0.394 | glycan array binding signal (z-score) [31]: 0.186 | glycan array binding signal (z-score) [32]: -0.43 | glycan array binding signal (z-score) [33]: -0.468 | glycan array binding signal (z-score) (Neu5Ac(a2-3)Gal(b1-4)Glc): 0.656 | glycan array binding signal (z-score) [34]: -0.064 | glycan array binding signal (z-score) [35]: -0.023 | glycan array binding signal (z-score) [36]: -0.354 | glycan array binding signal (z-score) [37]: -0.46 | glycan array binding signal (z-score) [38]: -0.174 | glycan array binding signal (z-score) [39]: -0.291
